# According to the supplement of paper PMC8728848:
# The other results are listed elsewhere or left out.
# B1: PX9937J-pdi-523-26-523 (Parabacteroides distasonis) (protein)
# chain: EPVSSISDANYWKSPDLFKAFNIGLHGLLRSQSSYNIFVLGEPRSDIYGDQPFGGEATQGVERFSYNTINAEFTGISNFANFYTTLNQINLMIRRTNETDLLGEAEKNYYLGQAYGLRAYIYFHLLRSWGDVIITTEPTLGSELDISHLDKAASPASEVMDLIKKDIDASEKAFGGDYSYKQGKCYWSKPATLMLKGEVYLWSGRQMGGGTGDYTVAKTALQDLQQNGNLKLQEKFTDVFSFNNKENSEMIFALHSGKEDDFMMWRDYNWRNNMVPQREYMAGYCDETGTPFLEIPGYNLQGLMRYQVKKDHYLKSFREGDTRLKGTLKAVYKKHEDGTLEYIAPIQYKFQGTTLEGSNERSWYDDYPIYRYADALLLLAEAKALLGEDPSTEINAVRERAYGSEYFNAHKNEVAYPNDKGSFYNDNPFEAGDENVMEAILKERLREFFFEGKRWYDLRRFGKDYVLKYTTAQESRLLWPINEGALTNNPALKQTPGY
# Assays:
# Experiment in all cases: glycan array binding signal (z-score within array); higher = stronger binding
# Conditions in all cases: glycan notation: IUPAC condensed, linker removed
# [1] = molecular target: Fuc(a1-2)Gal(b1-4)GlcNAc(b1-3)Gal(b1-4)GlcNAc(b1-3)Gal(b1-4)GlcNAc
# Procedure, shortened: (§1)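 Glycan array data came from 3228 arrays in the Consortium for Functional Glycomics database, and only arrays with an available protein sequence were kept. Glycan names were put into IUPAC-condensed notation, and columns mapping to the same glycan were averaged. The binding signal is a within-array Z-score, averaged across arrays of one protein sequence run at different concentrations or buffers and across linkers. A negative Z-score can be read as non-binding.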
# [2] = molecular target: Fuc(a1-2)Gal(b1-4)GlcNAc(b1-3)GalNAc
# Procedure, shortened: as §1
# [3] = molecular target: Fuc(a1-2)Gal(b1-4)GlcNAc(b1-3)[Fuc(a1-2)Gal(b1-4)GlcNAc(b1-6)]GalNAc
# Procedure, shortened: as §1
# [4] = molecular target: Fuc(a1-2)Gal(b1-4)GlcNAc(b1-3)[Fuc(a1-3)[Gal(b1-4)]GlcNAc(b1-6)]Gal(b1-4)Glc
# Procedure, shortened: as §1
# [5] = molecular target: Fuc(a1-2)Gal(b1-4)GlcNAc(b1-6)GalNAc
# Procedure, shortened: as §1
# [6] = molecular target: Fuc(a1-2)Gal(b1-4)GlcNAc6S
# Procedure, shortened: as §1
# [7] = molecular target: Fuc(a1-2)Gal(b1-4)[Fuc(a1-3)]GlcNAc
# Procedure, shortened: as §1
# [8] = molecular target: Fuc(a1-2)Gal(b1-4)[Fuc(a1-3)]GlcNAc(b1-2)Man(a1-3)[Fuc(a1-2)Gal(b1-4)[Fuc(a1-3)]GlcNAc(b1-2)Man(a1-6)]Man(b1-4)GlcNAc(b1-4)[Fuc(a1-6)]GlcNAc
# Procedure, shortened: as §1
# [9] = molecular target: Fuc(a1-2)Gal(b1-4)[Fuc(a1-3)]GlcNAc(b1-2)[Fuc(a1-2)Gal(b1-4)[Fuc(a1-3)]GlcNAc(b1-4)]Man(a1-3)[Fuc(a1-2)Gal(b1-4)[Fuc(a1-3)]GlcNAc(b1-2)Man(a1-6)]Man(b1-4)GlcNAc(b1-4)GlcNAc
# Procedure, shortened: as §1
# [10] = molecular target: Fuc(a1-2)Gal(b1-4)[Fuc(a1-3)]GlcNAc(b1-3)Gal(b1-4)[Fuc(a1-3)]GlcNAc
# Procedure, shortened: as §1
# [11] = molecular target: Fuc(a1-2)Gal(b1-4)[Fuc(a1-3)]GlcNAc(b1-3)Gal(b1-4)[Fuc(a1-3)]GlcNAc(b1-3)Gal(b1-4)[Fuc(a1-3)]GlcNAc
# Procedure, shortened: as §1
# [12] = molecular target: Fuc(a1-2)Gal(b1-4)[Fuc(a1-3)]GlcNAc(b1-3)GalNAc
# Procedure, shortened: as §1
# [13] = molecular target: Fuc(a1-2)Gal(b1-4)[Fuc(a1-3)]GlcNAc(b1-3)[Neu5Ac(a2-6)Gal(b1-4)GlcNAc(b1-6)]Gal(b1-4)Glc
# Procedure, shortened: as §1
# [14] = molecular target: Fuc(a1-2)Gal3S(b1-4)GlcNAc
# Procedure, shortened: as §1
# [15] = molecular target: Fuc(a1-2)Gal6S(b1-3)GlcNAc
# Procedure, shortened: as §1
# [16] = molecular target: Fuc(a1-2)Gal6S(b1-3)GlcNAc6S
# Procedure, shortened: as §1
# Fuc(a1-2)Gal6S(b1-4)Glc = molecular target: Fuc(a1-2)Gal6S(b1-4)Glc
# Procedure, shortened: as §1
# [17] = molecular target: Fuc(a1-2)Gal6S(b1-4)Glc6S
# Procedure, shortened: as §1
# Fuc(a1-2)[Gal(a1-3)]Gal = molecular target: Fuc(a1-2)[Gal(a1-3)]Gal
# Procedure, shortened: as §1
# [18] = molecular target: Fuc(a1-2)[Gal(a1-3)]Gal(b1-3)GalNAc
# Procedure, shortened: as §1
# [19] = molecular target: Fuc(a1-2)[Gal(a1-3)]Gal(b1-3)GalNAc(b1-3)Gal(a1-4)Gal(b1-4)Glc
# Procedure, shortened: as §1
# [20] = molecular target: Fuc(a1-2)[Gal(a1-3)]Gal(b1-3)GlcNAc
# Procedure, shortened: as §1
# [21] = molecular target: Fuc(a1-2)[Gal(a1-3)]Gal(b1-3)GlcNAc(b1-2)Man(a1-3)[Fuc(a1-2)[Gal(a1-3)]Gal(b1-3)GlcNAc(b1-2)Man(a1-6)]Man(b1-4)GlcNAc(b1-4)GlcNAc
# Procedure, shortened: as §1
# [22] = molecular target: Fuc(a1-2)[Gal(a1-3)]Gal(b1-3)GlcNAc(b1-2)Man(a1-3)[Fuc(a1-2)[Gal(a1-3)]Gal(b1-3)GlcNAc(b1-2)Man(a1-6)]Man(b1-4)GlcNAc(b1-4)[Fuc(a1-6)]GlcNAc
# Procedure, shortened: as §1
# [23] = molecular target: Fuc(a1-2)[Gal(a1-3)]Gal(b1-3)GlcNAc(b1-3)GalNAc
# Procedure, shortened: as §1
# [24] = molecular target: Fuc(a1-2)[Gal(a1-3)]Gal(b1-3)GlcNAc(b1-6)GalNAc
# Procedure, shortened: as §1
# [25] = molecular target: Fuc(a1-2)[Gal(a1-3)]Gal(b1-4)Glc
# Procedure, shortened: as §1
# [26] = molecular target: Fuc(a1-2)[Gal(a1-3)]Gal(b1-4)GlcNAc
# Procedure, shortened: as §1
# [27] = molecular target: Fuc(a1-2)[Gal(a1-3)]Gal(b1-4)GlcNAc(b1-2)Man
# Procedure, shortened: as §1
# [28] = molecular target: Fuc(a1-2)[Gal(a1-3)]Gal(b1-4)GlcNAc(b1-2)Man(a1-3)[Fuc(a1-2)[Gal(a1-3)]Gal(b1-4)GlcNAc(b1-2)Man(a1-6)]Man(b1-4)GlcNAc(b1-4)GlcNAc
# Procedure, shortened: as §1
# [29] = molecular target: Fuc(a1-2)[Gal(a1-3)]Gal(b1-4)GlcNAc(b1-2)Man(a1-3)[Fuc(a1-2)[Gal(a1-3)]Gal(b1-4)GlcNAc(b1-2)Man(a1-6)]Man(b1-4)GlcNAc(b1-4)[Fuc(a1-6)]GlcNAc
# Procedure, shortened: as §1
# [30] = molecular target: Fuc(a1-2)[Gal(a1-3)]Gal(b1-4)GlcNAc(b1-3)GalNAc
# Procedure, shortened: as §1
# [31] = molecular target: Fuc(a1-2)[Gal(a1-3)]Gal(b1-4)GlcNAc(b1-3)[Fuc(a1-2)[Gal(a1-3)]Gal(b1-4)GlcNAc(b1-6)]GalNAc
# Procedure, shortened: as §1
# [32] = molecular target: Fuc(a1-2)[Gal(a1-3)]Gal(b1-4)GlcNAc(b1-6)GalNAc
# Procedure, shortened: as §1
# [33] = molecular target: Fuc(a1-2)[Gal(a1-3)]Gal(b1-4)[Fuc(a1-3)]Glc
# Procedure, shortened: as §1
# [34] = molecular target: Fuc(a1-2)[Gal(a1-3)]Gal(b1-4)[Fuc(a1-3)]GlcNAc
# Procedure, shortened: as §1
# [35] = molecular target: Fuc(a1-2)[Gal(a1-3)]Gal(b1-4)[Fuc(a1-3)]GlcNAc(b1-3)GalNAc
# Procedure, shortened: as §1
binder,measurement,setting,value
B1,glycan array binding signal (z-score),[1],0.617
same,glycan array binding signal (z-score),[2],-0.156
same,glycan array binding signal (z-score),[3],-0.406
same,glycan array binding signal (z-score),[4],-0.107
same,glycan array binding signal (z-score),[5],0.543
same,glycan array binding signal (z-score),[6],-0.348
same,glycan array binding signal (z-score),[7],-0.324
same,glycan array binding signal (z-score),[8],0.629
same,glycan array binding signal (z-score),[9],0.253
same,glycan array binding signal (z-score),[10],-0.738
same,glycan array binding signal (z-score),[11],0.203
same,glycan array binding signal (z-score),[12],0.326
same,glycan array binding signal (z-score),[13],0.315
same,glycan array binding signal (z-score),[14],-0.342
same,glycan array binding signal (z-score),[15],-0.322
same,glycan array binding signal (z-score),[16],0.817
same,glycan array binding signal (z-score),Fuc(a1-2)Gal6S(b1-4)Glc,-0.238
same,glycan array binding signal (z-score),[17],-0.406
same,glycan array binding signal (z-score),Fuc(a1-2)[Gal(a1-3)]Gal,-0.17
same,glycan array binding signal (z-score),[18],-0.16
same,glycan array binding signal (z-score),[19],0.139
same,glycan array binding signal (z-score),[20],0.244
same,glycan array binding signal (z-score),[21],0.405
same,glycan array binding signal (z-score),[22],-0.706
same,glycan array binding signal (z-score),[23],-0.603
same,glycan array binding signal (z-score),[24],-0.417
same,glycan array binding signal (z-score),[25],0.053
same,glycan array binding signal (z-score),[26],-0.433
same,glycan array binding signal (z-score),[27],0.222
same,glycan array binding signal (z-score),[28],-0.755
same,glycan array binding signal (z-score),[29],-0.135
same,glycan array binding signal (z-score),[30],-0.655
same,glycan array binding signal (z-score),[31],-0.426
same,glycan array binding signal (z-score),[32],-0.556
same,glycan array binding signal (z-score),[33],-0.065
same,glycan array binding signal (z-score),[34],-0.016
same,glycan array binding signal (z-score),[35],0.082
